# Measurements taken from PubChem BioAssay AID2147 (National Center for Advancing Translational Sciences (NCATS), 2009).
# The campaign covered roughly 230,000 compounds. About 3,600 (1.6%) were called active. Inconclusive results, whose numbers are uncertain, are shown with a selection of clear calls. The call rests on the fitted dose curve; in most records, active means well fitted inhibition curve with a large enough effect (not every such curve was filed as active); inconclusive means small, poorly fitted or top-dose-only effect, or another doubt; inactive means no such curve, though single readings can be large or run the other way. Potencies of inconclusive entries are doubtful fits and often do not repeat.
# Molecular target: Lysine-specific demethylase 4E (Homo sapiens) (UniProt B2RXH2)
# UniProt B2RXH2, sequence (B2RXH2 whole entry, looked up, the tested form may be a part): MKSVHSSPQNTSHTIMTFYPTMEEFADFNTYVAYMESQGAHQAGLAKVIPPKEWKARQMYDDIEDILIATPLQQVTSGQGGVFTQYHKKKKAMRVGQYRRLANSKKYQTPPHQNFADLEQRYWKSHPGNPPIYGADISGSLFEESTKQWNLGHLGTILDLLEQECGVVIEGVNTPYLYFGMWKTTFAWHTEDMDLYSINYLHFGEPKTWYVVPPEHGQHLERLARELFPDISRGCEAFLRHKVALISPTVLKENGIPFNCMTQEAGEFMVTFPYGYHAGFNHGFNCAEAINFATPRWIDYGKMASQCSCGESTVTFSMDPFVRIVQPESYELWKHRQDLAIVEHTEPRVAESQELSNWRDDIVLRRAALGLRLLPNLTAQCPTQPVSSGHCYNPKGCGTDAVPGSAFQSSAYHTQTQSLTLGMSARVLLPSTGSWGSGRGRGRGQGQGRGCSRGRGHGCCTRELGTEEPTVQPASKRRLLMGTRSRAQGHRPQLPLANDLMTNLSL
# Experiment: qHTS Assay for Inhibitors of Human Jumonji Domain Containing 2E (JMJD2E)
# Conditions: JMJD2E catalytic domain, FDH-coupled NADH fluorescence (FDH is formaldehyde dehydrogenase); series mostly up to 57.1 µM; activity change, negative = inhibition: at the top concentration
# Further: nearly all actives have a fitted effect of over 50% in size.
# Potency means the concentration at half of the fitted maximal effect; tags describe the fitted curve by direction and shape.
# 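Wherever activity change, negative = inhibition is given: 0% = wells with enzyme and -100% = buffer wells without enzyme.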
Compound,Potency,"activity change, negative = inhibition"
Cc1ccc(-c2nnc(SCc3nc4ccccc4[nH]3)n2Cc2ccco2)cc1,"inconclusive: 31.6 µM [inhibitor, single point]",–
O=C(Nc1ccc2c(c1)OCCO2)c1ccc(S(=O)(=O)N2CCCCC2)cc1,–,inactive: -10.2%
Cn1c(N)c(C(=O)N/N=C/c2ccccc2)sc1=S,"inconclusive: 39.8 µM [inhibitor, single point]",–
CCOC(=O)N1CCC(NC(=O)C2CCN(C(=O)N3CCOc4ccccc43)CC2)CC1,–,inactive: 2.46%
O=C(CCSc1nc(-c2ccco2)cc(C(F)(F)F)n1)N1CCN(c2ccccn2)CC1,–,inactive: -2.92%
CCN(CC)CCNc1c2c(c(C#N)c3nc4ccccc4n13)CCCC2,"inconclusive: 35.5 µM [inhibitor, single point]",–
COc1ccc(C2=NN(C(=O)CN3CCCCC3)C(c3ccc(C)cc3)C2)cc1 (configuration not stated),–,inactive: -28.3%
COc1ccc(-c2ccc3c(n2)sc2c(=O)[nH]c(=O)[nH]c23)cc1OC,"inconclusive: 28.2 µM [inhibitor, partial curve]",–
O=C(Cc1c(O)c2ccccc2[nH]c1=O)NCc1ccc(F)cc1,"inconclusive: 35.5 µM [inhibitor, partial curve]",–
CC(C)CC(=O)NC(=S)Nc1ccccc1C(F)(F)F,–,inactive: 1.07%
COc1ccc(C2=NN(C(=O)CN3CCCCC3)C(c3ccc(OC)cc3)C2)cc1 (configuration not stated),"inconclusive: 22.4 µM [inhibitor, single point]",–
Cc1nn(C)c(C)c1-c1c(C#N)c(N)nc2c1CCCCCC2,"inconclusive: 31.6 µM [inhibitor, partial curve]",–
COCCn1c(=O)[nH]c2cc(C(=O)NCCCN3CCN(c4ccc(F)cc4)CC3)ccc2c1=O,"inconclusive: 31.6 µM [inhibitor, partial curve]",–
COC(=O)c1sc(NC(=O)CC(C)C)c(C(=O)OC)c1C,–,inactive: -6.84%
CSc1nc2c(c(=O)[nH]1)CCCC2,–,inactive: -0.162%
O=S(=O)(c1ccc(-c2cn3ccccc3n2)cc1)N1CCOCC1,"inconclusive: 25.1 µM [inhibitor, partial curve]",–
CCc1nc(Nc2ccc3nccnc3c2)c2oc3ccccc3c2n1,"inconclusive: 7.94 µM [inhibitor, full curve]",–
CCOC(=O)/C(=N\Nc1ccc(OC)cc1)c1csc(Nc2ccccc2)n1,–,inactive: -10.5%
O=C(O)CCCN=CC1=C(O)CNC1=O,–,inactive: 6.77%
Cn1c(/C=C/c2ccccc2)nc2ccccc21,"inconclusive: 31.6 µM [inhibitor, partial curve]",–
COc1ccc(NC(=O)C2CCC(CNS(=O)(=O)c3cccs3)CC2)cc1 (configuration not stated),–,inactive: 0.919%
Nc1ccccc1SC(C[N+](=O)[O-])c1ccccc1 (configuration not stated),active: 6.31 µM,–
Cn1nc(-c2ccc(Cl)cc2)c2cc(C(=O)NC3CC3)sc21,"inconclusive: 28.2 µM [inhibitor, partial curve]",–
O=C(/C=C/c1ccccc1)NC(NC(=S)Nc1ccc(Cl)cc1)C(Cl)(Cl)Cl (configuration not stated),–,inactive: 1.89%

Compound,Potency,"activity change, negative = inhibition"
COCCOC(=O)C1=C(C)NC2=C(C(=O)CCC2)C1c1cc2c(cc1Br)OCO2 (configuration not stated),"inconclusive: 28.2 µM [inhibitor, single point]",–
Cc1cccc(-n2cnc(C(=O)NNC(=S)Nc3ccc(Cl)cc3)c2)n1,"inconclusive: 22.4 µM [inhibitor, single point]",–
CC(Oc1ccccc1)C(=O)Nc1oc(-c2ccco2)c(-c2ccco2)c1C#N (configuration not stated),"inconclusive: 39.8 µM [inhibitor, single point]",–
Cc1c(-c2nc(N)nc(Nc3ccccc3)n2)oc2ccccc12,"inconclusive: 35.5 µM [inhibitor, single point]",–
Cc1ccc(-c2csc(NC(=O)c3ccc(C)o3)n2)cc1,"inconclusive: 25.1 µM [inhibitor, partial curve]",–
COc1cc(C=O)ccc1OCC(=O)N1CCCC1,"inconclusive: 2.82 µM [inhibitor, full curve, poor fit]",–
c1ccc2[nH]c(CSc3ncnc4c3oc3ccccc34)nc2c1,–,inactive: -8.54%
Cc1ccc(C(=O)N/N=C/c2ccc3c(c2)OCO3)o1,"inconclusive: 39.8 µM [inhibitor, single point]",–
CC(=O)Cc1nsc(NC(=O)c2ccc(-c3ccc(Cl)cc3Cl)o2)n1,"inconclusive: 28.2 µM [inhibitor, partial curve]",–
COC(=O)C1=CN(c2cccc(C)c2)C=C(C(=O)OC)C1c1cc(OC)c(O)c([N+](=O)[O-])c1,–,inactive: -15%
CC(C)n1c(=O)[nH]c2ccccc21,–,inactive: -3.41%
O=C(O)CCCCCNC(=O)CCn1nnc2ccccc2c1=O,"inconclusive: 35.5 µM [inhibitor, single point]",–
O=C(Nc1ccc(Cl)cc1)Nc1nnc(/C=C/c2ccccc2)s1,"inconclusive: 15.8 µM [inhibitor, partial curve]",–
Cc1ccc(S(=O)(=O)NCC(=O)N2CCN(c3ccccn3)CC2)cc1,"inconclusive: 31.6 µM [inhibitor, single point]",–
CCOc1ccc(OCC)c2sc(C)nc12,"inconclusive: 25.1 µM [inhibitor, single point]",–
Cc1cc(=O)[nH]c(SCC(=O)/C=C2\N(C)c3ccccc3C2(C)C)n1,"inconclusive: 31.6 µM [inhibitor, single point]",–
COc1ccc(/C(C)=N/NC(=O)c2ccc(CSc3cccc4cccnc34)cc2)cc1OC,"inconclusive: 31.6 µM [inhibitor, partial curve]",–
Cc1ccccc1NC(NC(=O)OCCn1c([N+](=O)[O-])cnc1C)C(Cl)(Cl)Cl (configuration not stated),–,inactive: -4.93%
Nc1nc(-c2ccc(F)cc2)cs1,–,inactive: 1.02%
CCCCCCn1c(=O)c(F)cn(Cc2ccc(OC)c([N+](=O)[O-])c2)c1=O,"inconclusive: 39.8 µM [inhibitor, single point]",–
CCOc1ccc2c(c1)C(c1ccc(C)o1)=NNC(c1ccncc1)=N2,"inconclusive: 28.2 µM [inhibitor, single point]",–
C[n+]1ccc(/C=C/c2ccccc2O)c2ccccc21,–,inactive: -19.3%
CS(=O)(=O)Nc1ccc(C2=NN(C(=O)c3ccco3)C(c3ccccc3F)C2)cc1 (configuration not stated),"inconclusive: 35.5 µM [inhibitor, partial curve]",–
CN(C)CCN1C(=O)NC(C)(c2ccc([N+](=O)[O-])cc2)C1=O (configuration not stated),"inconclusive: 39.8 µM [inhibitor, single point]",–

Compound,Potency,"activity change, negative = inhibition"
O=C(O)c1ccc(-c2cccc([N+](=O)[O-])c2)o1,–,inactive: -0.988%
Clc1cccc(/C=N/Nc2nc(Cl)nc3ccccc23)c1,"inconclusive: 28.2 µM [inhibitor, partial curve]",–
O=C(/C=C/c1ccc(Br)cc1)c1ccco1,–,inactive: -2.35%
N#C/C(=C(/O)CN1CCOCC1)c1nc(-c2ccccc2)cs1,–,inactive: -1.88%
COc1cc(OC)c(-c2nnc(-c3ccc(OC)c(OC)c3OC)o2)cc1OC,"inconclusive: 31.6 µM [inhibitor, partial curve]",–
O=C(CCCN1Cc2ccccc2C1)c1ccc(F)cc1,"inconclusive: 17.8 µM [inhibitor, partial curve]",–
Cc1ccc(NC(=S)NC(=O)c2sc3ccccc3c2Cl)c(C(=O)O)c1,"inconclusive: 28.2 µM [inhibitor, partial curve]",–
S=C1SCN(Cc2ccccn2)CN1Cc1ccco1,–,inactive: -11.7%
Cc1ccnc(N2C3CCC2CC(O)(c2ccccc2)C3)n1 (configuration not stated),"inconclusive: 31.6 µM [inhibitor, partial curve]",–
CCCC(=O)Nc1nnc(-c2ccc(Cl)s2)o1,"inconclusive: 35.5 µM [inhibitor, single point]",–
Cc1cc(C)c(OCC(=O)Nc2cccc(NC(=O)c3ccco3)c2)c(Br)c1,"inconclusive: 39.8 µM [inhibitor, single point]",–
CCOC(=O)c1c(NC(=O)c2nn(CC)cc2Br)c(C#N)nn1-c1ccccc1,"inconclusive: 31.6 µM [inhibitor, single point]",–
S=C(Nc1ccccc1)N1CCN(c2ccc(N3CCOCC3)nn2)CC1,"inconclusive: 35.5 µM [inhibitor, partial curve]",–
COc1ccccc1N1CCN(C(c2ccc(N(C)C)cc2)c2nnnn2CCc2ccccc2)CC1 (configuration not stated),–,inactive: 13.2%
Cc1ccc(C)c(S(=O)(=O)C(C#N)c2nc3ccccc3nc2N2CCCC2)c1 (configuration not stated),"inconclusive: 25.1 µM [inhibitor, partial curve]",–
COC(=O)c1ccccc1NC(=O)C1CCCN(S(=O)(=O)c2ccc(OC)cc2)C1 (configuration not stated),"inconclusive: 39.8 µM [inhibitor, single point]",–
O=[N+]([O-])c1ccc(Cl)c(S(=O)(=O)N2CCCCCC2)c1,–,inactive: 2.56%
COc1ccccc1CNc1ncnc2c1cnn2-c1ccccc1,"inconclusive: 35.5 µM [inhibitor, single point]",–
CC1CN(c2oc(-c3cccs3)nc2C#N)CC(C)O1 (configuration not stated),"inconclusive: 11.2 µM [inhibitor, partial curve]",–
CN(CC(=O)N1CCN(c2ccccn2)CC1)S(=O)(=O)c1ccc(Br)cc1,"inconclusive: 28.2 µM [inhibitor, single point]",–
Cc1cccc(CNc2ncnc3ccc(-c4ccccc4CN(C)C)cc23)c1,"inconclusive: 39.8 µM [inhibitor, single point]",–
COCCN(CC(=O)NC1CCCCC1)C(=O)CSc1nc2ccccc2o1,–,inactive: -2.54%
CCOC(=O)CSc1nc(N)c(C#N)c(-c2ccc(OCC)cc2)c1C#N,"inconclusive: 35.5 µM [inhibitor, single point]",–
O=C(NCc1ccccn1)c1ccc2nc(-c3ccco3)c(-c3ccco3)nc2c1,"inconclusive: 22.4 µM [inhibitor, partial curve]",–
